# The supplement of paper PMC8728848
# This is one part of the list.
# B1: Gal 4 (Canis lupus) (protein)
# chain: MAYVPAPGYQPTYNPTLPYNKPIPGGLSVGMSVYIQGITSEHMRRFCVNFVAGAHPGSDIAFHFNPRFDGWDKVVFNSHLGGKWGSEEKKRSMPFRKGTHFELVFMVLAEHYKVVVNGNPFYEFGHRLPLQLVTHLQVEGDVELQSINFIGGTQPLGQGPGHTQQQPSSLPTMEGPPVFNPPVPFRKRLQGGLTVRRTVIIKGFVPFTSKSFVINFMVESSGDLALHINPRLTEGLVVRNSCLNGSWGSEDRKLSYNPFIPGQFFDLSIRCGMDRFKVYANGQHLFDFSHRLLALQNVDMLEINGDVTLSYIQV
# Tests used:
# Assay in all cases: glycan array binding signal (z-score within array); higher = stronger binding
# Conditions in all cases: glycan notation: IUPAC condensed, linker removed
# [1] = molecular target: Neu5Ac(a2-3)Gal(b1-4)[Fuc(a1-3)]GlcNAc(b1-3)Gal(b1-4)GlcNAc
# In short: (§1)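 Negative Z-scores can be read as non-binding. The Z-score is calculated within each array and then averaged across arrays of one protein sequence at different concentrations or buffers and across linkers. Arrays, 3228 in all, were curated from the Consortium for Functional Glycomics database and kept only where the protein sequence was available.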
# [2] = molecular target: Neu5Ac(a2-3)Gal(b1-4)[Fuc(a1-3)]GlcNAc(b1-3)Gal(b1-4)[Fuc(a1-3)]GlcNAc(b1-3)Gal(b1-4)[Fuc(a1-3)]GlcNAc
# In short: as §1
# [3] = molecular target: Neu5Ac(a2-3)Gal(b1-4)[Fuc(a1-3)]GlcNAc(b1-3)GalNAc
# In short: as §1
# [4] = molecular target: Neu5Ac(a2-3)Gal(b1-4)[Fuc(a1-3)]GlcNAc(b1-6)[Gal(b1-3)]GalNAc
# In short: as §1
# [5] = molecular target: Neu5Ac(a2-3)Gal(b1-4)[Fuc(a1-3)]GlcNAc(b1-6)[Neu5Ac(a2-3)Gal(b1-3)]GalNAc
# In short: as §1
# [6] = molecular target: Neu5Ac(a2-3)Gal(b1-4)[Fuc(a1-3)]GlcNAc6S
# In short: as §1
# [7] = molecular target: Neu5Ac(a2-3)Gal6S(b1-4)GlcNAc
# In short: as §1
# [8] = molecular target: Neu5Ac(a2-3)Gal6S(b1-4)[Fuc(a1-3)]GlcNAc
# In short: as §1
# Neu5Ac(a2-3)GalNAc = molecular target: Neu5Ac(a2-3)GalNAc
# In short: as §1
# [9] = molecular target: Neu5Ac(a2-3)GalNAc(b1-4)GlcNAc
# In short: as §1
# [10] = molecular target: Neu5Ac(a2-3)[GalNAc(b1-4)]Gal(b1-4)Glc
# In short: as §1
# [11] = molecular target: Neu5Ac(a2-3)[GalNAc(b1-4)]Gal(b1-4)GlcNAc
# In short: as §1
# [12] = molecular target: Neu5Ac(a2-3)[GalNAc(b1-4)]Gal(b1-4)GlcNAc(b1-3)GalNAc
# In short: as §1
# [13] = molecular target: Neu5Ac(a2-3)[Neu5Ac(a2-6)]GalNAc
# In short: as §1
# Neu5Ac(a2-6)Gal = molecular target: Neu5Ac(a2-6)Gal
# In short: as §1
# [14] = molecular target: Neu5Ac(a2-6)Gal(b1-3)GlcNAc(b1-3)[Gal(b1-4)GlcNAc(b1-6)]Gal(b1-4)Glc
# In short: as §1
# Neu5Ac(a2-6)Gal(b1-4)Glc = molecular target: Neu5Ac(a2-6)Gal(b1-4)Glc
# In short: as §1
# [15] = molecular target: Neu5Ac(a2-6)Gal(b1-4)GlcNAc
# In short: as §1
# [16] = molecular target: Neu5Ac(a2-6)Gal(b1-4)GlcNAc(b1-2)Man(a1-3)Man(b1-4)GlcNAc(b1-4)GlcNAc
# In short: as §1
# [17] = molecular target: Neu5Ac(a2-6)Gal(b1-4)GlcNAc(b1-2)Man(a1-3)[Gal(b1-4)GlcNAc(b1-2)Man(a1-6)]Man(b1-4)GlcNAc(b1-4)GlcNAc
# In short: as §1
# [18] = molecular target: Neu5Ac(a2-6)Gal(b1-4)GlcNAc(b1-2)Man(a1-3)[GlcNAc(b1-2)Man(a1-6)]Man(b1-4)GlcNAc(b1-4)GlcNAc
# In short: as §1
# [19] = molecular target: Neu5Ac(a2-6)Gal(b1-4)GlcNAc(b1-2)Man(a1-3)[GlcNAc(b1-2)Man(b1-4)GlcNAc(b1-2)Man(a1-6)]Man(b1-4)GlcNAc(b1-4)GlcNAc
# In short: as §1
# [20] = molecular target: Neu5Ac(a2-6)Gal(b1-4)GlcNAc(b1-2)Man(a1-3)[Man(a1-6)]Man(b1-4)GlcNAc(b1-4)GlcNAc
# In short: as §1
# [21] = molecular target: Neu5Ac(a2-6)Gal(b1-4)GlcNAc(b1-2)Man(a1-3)[Neu5Ac(a2-6)Gal(b1-4)GlcNAc(b1-2)Man(a1-6)]Man(b1-4)GlcNAc(b1-4)GlcNAc
# In short: as §1
# [22] = molecular target: Neu5Ac(a2-6)Gal(b1-4)GlcNAc(b1-2)Man(a1-6)Man(b1-4)GlcNAc(b1-4)GlcNAc
# In short: as §1
# [23] = molecular target: Neu5Ac(a2-6)Gal(b1-4)GlcNAc(b1-2)Man(a1-6)[Gal(b1-4)GlcNAc(b1-2)Man(a1-3)]Man(b1-4)GlcNAc(b1-4)GlcNAc
# In short: as §1
# [24] = molecular target: Neu5Ac(a2-6)Gal(b1-4)GlcNAc(b1-2)Man(a1-6)[GlcNAc(b1-2)Man(a1-3)]Man(b1-4)GlcNAc(b1-4)GlcNAc
# In short: as §1
# [25] = molecular target: Neu5Ac(a2-6)Gal(b1-4)GlcNAc(b1-2)Man(a1-6)[Man(a1-3)]Man(b1-4)GlcNAc(b1-4)GlcNAc
# In short: as §1
# [26] = molecular target: Neu5Ac(a2-6)Gal(b1-4)GlcNAc(b1-3)Gal(b1-3)GlcNAc
# In short: as §1
# [27] = molecular target: Neu5Ac(a2-6)Gal(b1-4)GlcNAc(b1-3)Gal(b1-4)GlcNAc
# In short: as §1
# [28] = molecular target: Neu5Ac(a2-6)Gal(b1-4)GlcNAc(b1-3)Gal(b1-4)GlcNAc(b1-3)Gal(b1-4)GlcNAc
# In short: as §1
# [29] = molecular target: Neu5Ac(a2-6)Gal(b1-4)GlcNAc(b1-3)Gal(b1-4)[Fuc(a1-3)]GlcNAc(b1-3)Gal(b1-4)[Fuc(a1-3)]GlcNAc
# In short: as §1
# [30] = molecular target: Neu5Ac(a2-6)Gal(b1-4)GlcNAc(b1-3)GalNAc
# In short: as §1
# [31] = molecular target: Neu5Ac(a2-6)Gal(b1-4)GlcNAc6S
# In short: as §1
# Neu5Ac(a2-6)GalNAc = molecular target: Neu5Ac(a2-6)GalNAc
# In short: as §1
# [32] = molecular target: Neu5Ac(a2-6)GalNAc(b1-4)GlcNAc
# In short: as §1
# [33] = molecular target: Neu5Ac(a2-6)GlcNAc(b1-4)GlcNAc
# In short: as §1
# [34] = molecular target: Neu5Ac(a2-6)GlcNAc(b1-4)GlcNAc(b1-4)GlcNAc
# In short: as §1
# Neu5Ac(a2-8)Neu5Ac = molecular target: Neu5Ac(a2-8)Neu5Ac
# In short: as §1
# [35] = molecular target: Neu5Ac(a2-8)Neu5Ac(a2-3)Gal(b1-4)Glc
# In short: as §1
# [36] = molecular target: Neu5Ac(a2-8)Neu5Ac(a2-3)[Gal(b1-3)GalNAc(b1-4)]Gal(b1-4)Glc
# In short: as §1
# [37] = molecular target: Neu5Ac(a2-8)Neu5Ac(a2-3)[GalNAc(b1-4)]Gal(b1-4)Glc
# In short: as §1
# [38] = molecular target: Neu5Ac(a2-8)Neu5Ac(a2-8)Neu5Ac
# In short: as §1
# [39] = molecular target: Neu5Ac(a2-8)Neu5Ac(a2-8)Neu5Ac(a2-3)Gal(b1-4)Glc
# In short: as §1
# [40] = molecular target: Neu5Ac(a2-8)Neu5Ac(a2-8)Neu5Ac(a2-3)[GalNAc(b1-4)]Gal(b1-4)Glc
# In short: as §1
# [41] = molecular target: Neu5Ac(a2-8)Neu5Ac(a2-8)Neu5Ac(a2-8)Neu5Ac(a2-3)[GalNAc(b1-4)]Gal(b1-4)Glc
# In short: as §1
# [42] = molecular target: Neu5Ac(b2-6)Gal(b1-4)GlcNAc
# In short: as §1
# Neu5Ac(b2-6)GalNAc = molecular target: Neu5Ac(b2-6)GalNAc
# In short: as §1
# [43] = molecular target: Neu5Ac9Ac(a2-3)Gal(b1-3)GlcNAc
# In short: as §1
# [44] = molecular target: Neu5Ac9Ac(a2-3)Gal(b1-4)GlcNAc
# In short: as §1
# [45] = molecular target: Neu5Ac9Ac(a2-6)Gal(b1-4)GlcNAc
# In short: as §1
# [46] = molecular target: Neu5Gc(a2-3)Gal(b1-3)GlcNAc
# In short: as §1
# [47] = molecular target: Neu5Gc(a2-3)Gal(b1-3)[Fuc(a1-4)]GlcNAc
# In short: as §1
# Neu5Gc(a2-3)Gal(b1-4)Glc = molecular target: Neu5Gc(a2-3)Gal(b1-4)Glc
# In short: as §1
# [48] = molecular target: Neu5Gc(a2-3)Gal(b1-4)GlcNAc
# In short: as §1
# [49] = molecular target: Neu5Gc(a2-3)Gal(b1-4)[Fuc(a1-3)]GlcNAc
# In short: as §1
# [50] = molecular target: Neu5Gc(a2-6)Gal(b1-4)GlcNAc
# In short: as §1
# Neu5Gc(a2-6)GalNAc = molecular target: Neu5Gc(a2-6)GalNAc
# In short: as §1
# [51] = molecular target: Neu5Gc(b2-6)Gal(b1-4)GlcNAc
# In short: as §1
binder,measurement,setting,value
B1,glycan array binding signal (z-score),[1],-0.132
same,glycan array binding signal (z-score),[2],-0.098
same,glycan array binding signal (z-score),[3],-0.067
same,glycan array binding signal (z-score),[4],-0.043
same,glycan array binding signal (z-score),[5],-0.12
same,glycan array binding signal (z-score),[6],-0.146
same,glycan array binding signal (z-score),[7],-0.16
same,glycan array binding signal (z-score),[8],-0.158
same,glycan array binding signal (z-score),Neu5Ac(a2-3)GalNAc,-0.152
same,glycan array binding signal (z-score),[9],-0.15
same,glycan array binding signal (z-score),[10],-0.152
same,glycan array binding signal (z-score),[11],-0.14
same,glycan array binding signal (z-score),[12],-0.121
same,glycan array binding signal (z-score),[13],-0.153
same,glycan array binding signal (z-score),Neu5Ac(a2-6)Gal,-0.152
same,glycan array binding signal (z-score),[14],-0.151
same,glycan array binding signal (z-score),Neu5Ac(a2-6)Gal(b1-4)Glc,-0.153
same,glycan array binding signal (z-score),[15],-0.154
same,glycan array binding signal (z-score),[16],-0.151
same,glycan array binding signal (z-score),[17],-0.114
same,glycan array binding signal (z-score),[18],-0.15
same,glycan array binding signal (z-score),[19],-0.155
same,glycan array binding signal (z-score),[20],-0.156
same,glycan array binding signal (z-score),[21],-0.14
same,glycan array binding signal (z-score),[22],-0.158
same,glycan array binding signal (z-score),[23],-0.145
same,glycan array binding signal (z-score),[24],-0.155
same,glycan array binding signal (z-score),[25],-0.151
same,glycan array binding signal (z-score),[26],-0.152
same,glycan array binding signal (z-score),[27],-0.151
same,glycan array binding signal (z-score),[28],-0.142
same,glycan array binding signal (z-score),[29],-0.152
same,glycan array binding signal (z-score),[30],-0.152
same,glycan array binding signal (z-score),[31],-0.154
same,glycan array binding signal (z-score),Neu5Ac(a2-6)GalNAc,-0.148
same,glycan array binding signal (z-score),[32],-0.147
same,glycan array binding signal (z-score),[33],-0.156
same,glycan array binding signal (z-score),[34],-0.147
same,glycan array binding signal (z-score),Neu5Ac(a2-8)Neu5Ac,-0.152
same,glycan array binding signal (z-score),[35],-0.151
same,glycan array binding signal (z-score),[36],-0.144
same,glycan array binding signal (z-score),[37],-0.133
same,glycan array binding signal (z-score),[38],-0.155
same,glycan array binding signal (z-score),[39],-0.149
same,glycan array binding signal (z-score),[40],-0.134
same,glycan array binding signal (z-score),[41],-0.146
same,glycan array binding signal (z-score),[42],-0.153
same,glycan array binding signal (z-score),Neu5Ac(b2-6)GalNAc,-0.146
same,glycan array binding signal (z-score),[43],-0.151
same,glycan array binding signal (z-score),[44],-0.153
same,glycan array binding signal (z-score),[45],-0.15
same,glycan array binding signal (z-score),[46],-0.146
same,glycan array binding signal (z-score),[47],-0.156
same,glycan array binding signal (z-score),Neu5Gc(a2-3)Gal(b1-4)Glc,-0.156
same,glycan array binding signal (z-score),[48],-0.152
same,glycan array binding signal (z-score),[49],-0.149
same,glycan array binding signal (z-score),[50],-0.154
same,glycan array binding signal (z-score),Neu5Gc(a2-6)GalNAc,-0.149
same,glycan array binding signal (z-score),[51],-0.158
